Measurements from patent US20180273573A1, “INHIBITORS OF MENAQUINONE BIOSYNTHESIS” (Memorial Sloan-Kettering Cancer Center, priority 2015, published 2018).

How the values were obtained:
[1] = biological target: T1, R195Q ecMenE (Escherichia coli, UniProt P37353, R195Q)
Experimental: (§1) To investigate the role of the conserved Arg in enzyme inhibition, the binding of OSB-AMS to ecMenE mutants by isothermal titration calorimetry (ITC). The direct binding of inhibitors to MenE was quantified using isothermal titration calorimetry (ITC). Measurements were made with a MicroCal VP-ITC instrument at 25° C. Inhibitor stock solutions (1 mM in NaHPO4 buffer pH 7.4 containing 150 mM NaCl and 1 mM MgCl2) were titrated in 4 μL increments into a 50 μM solution of MenE in pH 7.4 20 mM sodium phosphate buffer containing 150 mM sodium chloride and 1 mM magnesium chloride. The data were fit to a single binding site model with the Origin software package. […] The change in binding free energy (ΔΔG) is consistent with the removal of one (R195K) or two (R195Q) hydrogen bonds to the ligand consistent with the modeled structure in which the R195 guanadinium group makes two interactions with the OSB carboxylate, and thus also presumably with the carboxylate of OSB-AMS.

[2] = biological target: T2, R195K ecMenE (Escherichia coli, UniProt P37353, R195K)
Experimental: as §1

[3] = biological target: T1, R195Q ecMenE; details: substrate OSB
Experimental: (§2) Enzyme inhibition studies were performed using the MenE-MenB coupled reaction in which the MenE reaction is rate limiting (also described in Reference 1 and 2 which are incorporated herein by reference). Reaction mixtures contained OSB (60 μM), ATP (240 μM), CoA (240 μM), MtMenB (2.5 μM) and varying inhibitor concentrations (5-250 μM). Reactions were initiated by the addition of MenE (25 nM) and the production of DHNA-CoA was monitored at 392 nm (ε392 4000 M^−1 cm). Measurements were performed in triplicate for each compound.
(§3) Analysis of the catalytic efficiency (kcat/KM) of the mutant enzymes compared to wild type MenE was performed using the MenE-MenB coupled assay described above.

[4] = biological target: T2, R195K ecMenE; remark: listed apart in the source
Experimental: as §2, §3

[5] = change in binding free energy versus wild-type

T1 sequence (P37353 whole entry R195Q): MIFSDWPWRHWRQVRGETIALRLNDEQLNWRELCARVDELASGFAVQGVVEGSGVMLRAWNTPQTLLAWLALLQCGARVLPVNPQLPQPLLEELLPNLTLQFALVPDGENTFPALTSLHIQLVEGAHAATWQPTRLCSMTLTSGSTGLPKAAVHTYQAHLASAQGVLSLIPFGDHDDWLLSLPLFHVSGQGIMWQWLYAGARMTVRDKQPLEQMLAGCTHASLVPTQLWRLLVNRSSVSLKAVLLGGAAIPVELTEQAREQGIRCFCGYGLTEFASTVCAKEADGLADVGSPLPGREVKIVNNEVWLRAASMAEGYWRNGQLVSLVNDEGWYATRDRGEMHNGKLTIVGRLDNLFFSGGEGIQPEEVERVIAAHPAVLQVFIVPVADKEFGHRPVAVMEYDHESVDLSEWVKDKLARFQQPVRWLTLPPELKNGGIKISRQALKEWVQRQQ
T2 sequence (P37353 whole entry R195K): as the sequence (P37353 whole entry R195Q) above, with Q195K counted along it

| SMILES | Kd [1] [µM] | ΔG ([1]; ITC, 25° C., pH 7.4) [kcal/mol] | ΔH ([1]; ITC, 25° C., pH 7.4) [kcal/mol] | decrease of binding affinity to ecMenE by the mutation ([1]; R195Q versus wild-type, ITC) [fold] | ΔΔG [1, 5] [kcal/mol] | Kd [2] [µM] | ΔG ([2]; ITC, 25° C., pH 7.4) [kcal/mol] | ΔH ([2]; ITC, 25° C., pH 7.4) [kcal/mol] | decrease of binding affinity to ecMenE by the mutation ([2]; R195K versus wild-type, ITC) [fold] | ΔΔG [2, 5] [kcal/mol] | catalytic parameters (KM, kcat, kcat/KM) [3] | Km ([4]; read-out: KM OSB, substrate OSB) [µM] | kcat ([4]; substrate OSB) [s⁻¹] |
| --- | --- | --- | --- | --- | --- | --- | --- | --- | --- | --- | --- | --- | --- |
| Nc1ncnc2c1ncn2[C@@H]1O[C@H](COS(=O)(=O)NC(=O)CCC(=O)c2ccccc2C(=O)O)[C@@H](O)[C@H]1O [OSB-AMS, o-succinylbenzoate-adenenosinemonosulfamate] | 4.5 ± 0.112 | -7.3 | -3.1 ± 0.1 | ~100 | 2.7 | 0.394 ± 0.036 | -8.8 | -2.5 ± 0.2 | ~10 | 1.2 | – | – | – |
| O=C(O)CCC(=O)c1ccccc1C(=O)O [OSB, o-succinylbenzoate] | – | – | – | – | – | – | – | – | – | – | Not Active | 16 ± 1.4 | 0.783 ± 0.005 |
